Reference: PubChem BioAssay AID624417 (National Center for Advancing Translational Sciences (NCATS), 2012)
Hit rate of the full screen: of about 410,000 compounds, about 6,400 (1.6%) were called active. The inconclusive results got no clear call from the source; some entries with a clear call stand among them for comparison. Calls come from the whole dose curve; as a rule, active = well fitted inhibition curve with a large enough effect; inconclusive = small, poorly fitted or top-dose-only effect; inactive = no such curve, though single readings can be large or run the other way. No potency is given beside an inconclusive call; the fits are too rough.

Target: Glucagon-like peptide 1 receptor (Homo sapiens) (UniProt P43220)
Assay: qHTS of GLP-1 Receptor Inverse Agonists (Inhibition Mode); note: nearly all actives have a fitted effect of over 55% in size
Settings: HEK293 GLP-1R CRE-luciferase, luminescence, 24 h, GLP-1R form is constitutively active; activity change, negative = inhibition: at 38.3 µM (top of the series) unless noted
In short: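 GLP-1R inverse agonism mode: basal reporter luminescence in engineered HEK293 cells measured after one day of compound exposure at 37 deg C, with a 12 min room-temperature detection step.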
% is set by controls: 0 for no effect and ±100 for the full control effect; potency is the fitted concentration of half-maximal effect; tags give direction and shape of the fitted curve.

Chain of UniProt P43220 (P43220 whole entry, looked up): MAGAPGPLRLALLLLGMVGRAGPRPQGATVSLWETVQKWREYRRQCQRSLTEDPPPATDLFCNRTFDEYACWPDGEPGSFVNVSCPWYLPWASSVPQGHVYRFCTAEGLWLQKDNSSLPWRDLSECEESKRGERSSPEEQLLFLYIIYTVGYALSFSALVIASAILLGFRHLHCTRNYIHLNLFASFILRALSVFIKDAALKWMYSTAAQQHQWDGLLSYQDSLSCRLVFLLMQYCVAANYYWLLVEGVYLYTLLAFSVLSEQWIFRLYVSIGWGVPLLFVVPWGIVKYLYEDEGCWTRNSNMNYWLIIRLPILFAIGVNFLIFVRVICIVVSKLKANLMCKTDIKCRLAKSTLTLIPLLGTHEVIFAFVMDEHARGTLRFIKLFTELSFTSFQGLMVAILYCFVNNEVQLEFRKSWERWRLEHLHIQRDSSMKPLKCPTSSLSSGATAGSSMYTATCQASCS

Structure (SMILES)	activity change, negative = inhibition	Potency
O=S(=O)(O)Sc1ccccc1	inactive: -8.47%	–
O=C(NC(=S)NCc1cccnc1)c1ccccc1	inactive: 8.64%	–
CN1CCN(Cc2cc(COCc3ccccc3)c3cccnc3c2O)CC1	–	inconclusive [inhibitor, full curve, poor fit]
COc1ccc(OC)c(CCNC(=O)CS(=O)(=O)Cc2nc(-c3ccccc3C)oc2C)c1	–	inconclusive [inhibitor, partial curve]
CC(=O)c1ccc(NC(=O)NC2CCCc3ccccc32)cc1 (stereo unspecified)	–	inconclusive [inhibitor, partial curve, poor fit]
Cc1cc(N2CCC(N(C)C3CCCC3)CC2)nc2cc(O)ccc12	–	inconclusive [inhibitor, single point]
Cc1ccc(OCc2cc(C(=O)N(C)Cc3nccn3C)no2)cc1C	–	inconclusive [inhibitor, single point]
O=C(CCN1C(=O)CSc2ccccc21)Nc1cccc(C(F)(F)F)c1	–	inconclusive [inhibitor, partial curve, poor fit]
Cc1c(Cl)cccc1NC(=O)CCS(=O)(=O)c1ccc2c(c1)CC(=O)N2C	inactive: 0.409%	–
O=C(CCc1ccccc1)NC(NC(=S)Nc1cccc(Cl)c1)C(Cl)(Cl)Cl (stereo unspecified)	–	inconclusive [inhibitor, partial curve]
CCOc1ccccc1C(=O)N[C@H](C(=O)OCc1cc([N+](=O)[O-])cc2c1OCOC2)C(C)C	–	inconclusive [inhibitor, single point]
O=C(CC(=O)c1ccccc1)Nc1cc(C(F)(F)F)ccc1Cl	–	inconclusive [inhibitor, partial curve, poor fit]
COc1cccc(CC2(CO)CCCN(Cc3c(C)cc(C)cc3-n3cccn3)C2)c1 (stereo unspecified)	–	inconclusive [inhibitor, partial curve, poor fit]
CCCS(=O)(=O)N1CCN(CC2CC3C=CC2C3)CC1 (stereo unspecified)	inactive: 4.34%	–
Cc1ccc(S(=O)(=O)c2nc(S(=O)(=O)c3ccccc3)sc2NCCCOC(C)C)cc1	inactive: -12.1%	–
COc1ccc(C(=O)NC(=S)NNC(=O)c2cccc(C)c2)cc1	–	inconclusive [inhibitor, single point]
Oc1ccc(Cl)cc1CNC1CCCCC1	–	inconclusive [inhibitor, partial curve, poor fit]
CCc1ccc(NC(=O)Cn2ccn(-c3ccc(C)c(C)c3)c(=O)c2=O)cc1	inactive: 13.8%	–
O=C(Nc1ncc(Cc2ccccc2)s1)C1CCCO1 (stereo unspecified)	–	inconclusive [inhibitor, partial curve, poor fit]
Clc1ccccc1/C=C/c1nc(-c2ccccn2)no1	–	inconclusive [inhibitor, full curve]
COc1ccccc1-c1cc(C(=O)NCc2ccccc2)c2c(-c3ccc(C)cc3)[nH]nc2n1	–	inconclusive [inhibitor, partial curve, poor fit]
COc1ccc(NC(=O)c2oc3ccccc3c2NC(=O)Cc2coc3c(C)c(C)ccc23)cc1	–	inconclusive [inhibitor, partial curve, poor fit]

Structure (SMILES)	activity change, negative = inhibition	Potency
COC(=O)c1ccccc1NC(=S)NC(=O)C1CCCCC1	–	inconclusive [inhibitor, single point]
COc1cc2c(cc1OC)CN(CCC(C)c1ccc(Cl)cc1)CC2 (stereo unspecified)	–	inconclusive [inhibitor, partial curve, poor fit]
COc1ccc(CC(=O)N2N=C(C)CC2(O)C(F)(F)F)cc1 (stereo unspecified)	–	inconclusive [inhibitor, partial curve, poor fit]
Cc1ccccc1Oc1nc(-c2ccccn2)nc2ccccc12	–	inconclusive [inhibitor, partial curve, poor fit]
O=C(CN1CCN(S(=O)(=O)N2CCCCCC2)CC1)Nc1ccc(Br)cc1	–	inconclusive [inhibitor, single point]
Cn1nc(C(F)(F)F)c2cc(C(=O)Nc3ccc(F)cc3)sc21	–	inconclusive [inhibitor, single point]
CN(C)CCN(Cc1ccccc1)c1ccccn1	–	inconclusive [inhibitor, single point]
CCN(CC)c1ccc(/C=N/NC(=O)c2cc3ccccc3[nH]2)cc1	–	inconclusive [inhibitor, partial curve, poor fit]
N#C/C(=N\Nc1ccc(S(=O)(=O)N2CCOCC2)cc1)C(N)=S	–	inconclusive [inhibitor, partial curve, poor fit]
C[C@@]12C(=O)N(Cc3ccc(Cl)cc3)CC(=O)N1[C@H]1c3ccccc3OC[C@@H]1[C@@H]2c1ccccc1	–	inconclusive [inhibitor, single point]
CCOC(=O)CSc1ccc(-c2nc3cc(C)c(C)cc3[nH]2)cn1	inactive: 0%	–
CC1CCc2cc(F)ccc2N1C(=O)C12CCC(C)(C(=O)O1)C2(C)C (stereo unspecified)	–	inconclusive [inhibitor, partial curve, poor fit]
O=C(NC(=S)NC1CCCc2ccccc21)c1ccc(F)cc1 (stereo unspecified)	–	inconclusive [inhibitor, partial curve, poor fit]
C=CCc1ccc(OCc2ccc(C(=O)OC)o2)c(OC)c1	–	inconclusive [inhibitor, single point]
CC(C)c1cc(CN2CCN(CCC#N)CC2)cc(C(C)C)c1O	–	inconclusive [inhibitor, single point]
N#Cc1ccccc1N=C1CCCN1Cc1ccccc1	–	inconclusive [inhibitor, partial curve, poor fit]
O=C1Nc2ccccc2C1Cc1ccc(OC(F)(F)F)cc1 (stereo unspecified)	–	inconclusive [inhibitor, single point]
Cc1cccc(CN(CC(=O)N/N=C/c2ccco2)S(=O)(=O)c2ccc(Cl)cc2)c1	–	inconclusive [inhibitor, single point]
CCCn1c(SCC(=O)Nc2cccc(C)n2)nc2c1c(=O)n(C)c(=O)n2C	inactive: 0.707%	–
CCc1cccc(NC(=O)C2CC2c2ccccc2)c1 (stereo unspecified)	–	inconclusive [inhibitor, partial curve, poor fit]
CCCCC(=O)Nc1nnc(CCc2ccccc2)s1	inactive: -19.8%	–
CCOc1ccc(C(=O)NCCN2CCCCC2)c(OCC)c1	–	inconclusive [inhibitor, single point]

Structure (SMILES)	activity change, negative = inhibition	Potency
CC(C)NC(=O)c1onc(CSc2cccc3ccccc23)c1C(=O)O	–	inconclusive [inhibitor, partial curve, poor fit]
CN1CCN(c2ncc3c(n2)CCN(Cc2ccc(Br)s2)C3)CC1	–	active: 3.16 µM
C=CCC[C@@H](Cc1ccc(F)cc1)C(=O)OC[C@@H](NC(=O)[C@H](CC=C)CC(=O)NCCO)C(C)(C)C	–	inconclusive [inhibitor, single point]
Cc1onc(-c2ccccc2)c1C(=O)NC(=S)NNC(=O)c1ccccc1O	–	active: 2.82 µM
COc1ccccc1/C=C/C=N/NC(=O)c1cc(-c2ccco2)[nH]n1	–	inconclusive [inhibitor, single point]
CCC(C)(C)n1nnnc1CN1CCC(c2nc3ccc(C)cc3[nH]2)CC1	–	inconclusive [inhibitor, partial curve]
COc1cc2c(cc1OC)C(C)N(C(=O)c1cc3n(n1)C(C(F)(F)F)CC(c1ccco1)N3)CC2 (stereo unspecified)	–	inconclusive [inhibitor, single point]
Cc1ccccc1NC(=O)COC(=O)C1C2CC3OC(=O)C1C3C2 (stereo unspecified)	inactive: 5.67%	–
COCCn1c(=NC(=O)c2ccc3c(c2)OCCO3)sc2cc(S(N)(=O)=O)ccc21	–	inconclusive [inhibitor, single point]
Cc1ccc(-c2noc(CNC(=O)c3ccoc3C)n2)cc1	–	inconclusive [inhibitor, full curve, poor fit]
COc1ccccc1CN1C(=O)c2cccc3cccc(c23)C1=O	inactive: 18.7%	–
CN(C)CCCNC(=S)Nc1ccc(Oc2ccccc2)cc1	–	inconclusive [inhibitor, partial curve]
Cc1ccc([C@H]2C[C@H](O)[C@@H](n3cc(C4CC4)nn3)CN2Cc2cccs2)cc1	–	inconclusive [inhibitor, single point]
Cc1cccc2c1-c1sc(C(=O)N(C)c3cccc(Cl)c3)cc1CO2	–	inconclusive [inhibitor, single point]
CCN=c1scc(-c2ccco2)n1/N=C/c1ccc(OC)c(O)c1	inactive: 16.8%	–
Oc1ccc(C2C(c3ccccc3)=NN=C(c3ccc(Cl)cc3)N2O)c(O)c1 (stereo unspecified)	inactive: -29.5%	–
Cn1c(N)c(C(=O)Nc2cccc(Cl)c2)c(=O)n(C)c1=O	inactive: 5.14%	–
COc1cc2c3c(c1)c(N=NC(N)=S)c(O)n3C(C)(C)C=C2C	–	inconclusive [inhibitor, full curve, poor fit]
CC(C)c1ccc(NS(=O)(=O)c2ccc3c(c2)NC(=O)CO3)cc1	–	inconclusive [inhibitor, single point]
CCc1cc2c(cc3c(=O)n(CCCC(=O)NCc4cccc(Cl)c4)ncn32)s1	inactive: 11.7%	–
CC(C)c1ccc(NC(=O)C(c2ccccc2)N2CCN(C=O)CC2)cc1 (stereo unspecified)	–	inconclusive [inhibitor, partial curve, poor fit]
COc1ccccc1/C=C1\SC(=S)N(CCC(=O)Nc2cccc(O)c2)C1=O	–	inconclusive [inhibitor, single point]
